According to the supplement of paper PMC11417369:
± gives the standard deviation of the averaged measurements. The list shows a part of the results.

The sequences below were run on PfAP2-LT AP2 domain (GST-tagged) (assay: gcPBM binding intensity (ln(normalized median fluorescence intensity)); higher = stronger DNA binding).
Procedure, shortened: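 An Agilent 4 × 180k array of primer-extended double-stranded 36-bp intergenic genomic probes, with negative controls, was incubated for 1 h with GST-tagged P. falciparum DNA-binding domains expressed in E. coli. Alexa488 anti-GST antibody detected bound protein, scanned at 488 nm. Binding intensity is the highest Masliner-normalised natural-log median intensity across replicate spots of either probe orientation.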

Row | Sequence | gcPBM binding intensity (ln)
1 | ATATAGATCTACACTGCACACATTTTTAACACTGCT [CACACA_site1882] | 9.39 ± 0.27
2 | ATATTTAAACGATGGTGTACATATATTACAAGTTGT [XGTACX_site1743] | 8.98 ± 0.44
3 | TAAAATGAAGGAATATGTACATAAATAAACATATAT [XGTACX_site6266] | 8.98 ± 0.45
4 | AATATACGAAATTGTGCACACATATATTTATGTATG [CACACA_site1510] | 9.31 ± 0.39
5 | CGATATAAAGATATTAGTACATATGCATGCTTGTCT [XGTACX_site8629] | 8.93 ± 0.54
6 | CATATATGATATATTAGTACATATATATATATATAT [XGTACX_site1574] | 9.38 ± 0.22
7 | AATCTAATGTAATGCATACACACAACTATCCATCAA [CACACA_site535] | 9.15 ± 0.26
8 | CATATACGCAAACACACACACATATATATATATATA [CACACA_site501] | 10.3 ± 0.27
9 | AGGTATATATATTTATGTACTTAAAATGAGAAAATA [XGTACX_site8337] | 8.55 ± 0.56
10 | TATAATAATATTTATTGTACAATTAGGTTAATTCAT [XGTACX_site1986] | 8.61 ± 0.46
11 | TTGAAATTAAATGACATACACACTATATTATATATT [CACACA_site3135] | 8.76 ± 0.38
12 | AAAAATAAAGTAAAAGCATGCTAGTATATGGAAAAT [TGCATGCA_site486] | 9.22 ± 0.4
13 | CCGTATATTTTATATAGTACTCATCATATATTTTTA [XGTACX_site5560] | 8.64 ± 0.54
14 | CAAATTGGGAAATTTTGTACATATAATAAGGATACC [XGTACX_site7728] | 8.71 ± 0.39
15 | GATAATGAATGATGCACACTAAAAATATTCTACAAC [CACACA_site3622] | 9.29 ± 0.41
16 | CCTTTATTAAATAAATGTACATATTTTTGTGTTCTT [XGTACX_site2052] | 8.79 ± 0.5
17 | AAAAACTTTTCAAGTAGTACCATATCTACAATAGTA [XGTACX_site8927] | 8.53 ± 0.47
18 | AAACAAAAGATATATACACACTAAACATAAAAAAAA [CACACA_site6161] | 9.1 ± 0.47
19 | GTTGGTAGGATGTATGGTACACGTAGTATTTTTCTT [XGTACX_site2] | 9.13 ± 0.35

Row | Sequence | gcPBM binding intensity (ln)
20 | AATAAAAATAAAATTGTATATTTTAAATGAAAATAA [CACACA_negctrl_site898] | 8.4 ± 0.6
21 | AAACTCTCTTATATTAAACACACATATATATATGTA [CACACA_site8865] | 8.83 ± 0.37
22 | CATCAAAATGCTACATGTACATATATATAATATATT [XGTACX_site5207] | 8.9 ± 0.35
23 | AATATATATAAATAAACACACACAAATATAATAAAA [CACACA_site9176] | 9.51 ± 0.38
24 | GAAATGAACAAGTGGGTGCGTATTAATTACATATTA | 8.91 ± 0.49
25 | ATAGATAAATTTACGGGTACTAAAATGGAATATGAA [XGTACX_site8637] | 8.76 ± 0.46
26 | TGTGTTCAGTATTGCACACACACAACCAAATAAAAA [CACACA_site379] | 9.56 ± 0.38
27 | TATTTTACAATAACAATACACACTATAATATATATA [CACACA_site1391] | 8.68 ± 0.38
28 | ATTCACATATTATCTTTACACACTATATATAAGTTT [CACACA_site8901] | 9.14 ± 0.44
29 | TTTTTAATTTTTTTTAAACACACACCGTACATTCAA [CACACA_site7925] | 8.94 ± 0.65
30 | TATATACTTTATAAATGTACATATAATGTATTATTT [XGTACX_site7313] | 8.71 ± 0.36
31 | TCATTTTAAATATGTGTGCACGTTATAATTTACACA | 9.12 ± 0.4
32 | CATTTTCATTTTAAGGTGCATTAATATTTATTTTAA [GTGCAC_site9437] | 8.5 ± 0.48
33 | TATATATATACATATTGTACATATTACATGCTATTA [XGTACX_site1184] | 8.95 ± 0.36
34 | TTTTATAAACAGAGGGGTACGGGAAAAAAAAAAAAA [XGTACX_site1480] | 8.52 ± 0.46
35 | TGTTAAAGAGAAAGTACTACACATATTATGTGTTTT [XGTACX_site1435] | 8.85 ± 0.49
36 | AGAAAAAAAAAACACACACACACACCGTCAATATAA [CACACA_site7895] | 10.1 ± 0.2
37 | TTAAAAAAAATTATTTGTACTTAAAAATTTTATATT [XGTACX_site8751] | 8.07 ± 0.64
38 | TTTTTAAACCATGTTGTGCACATTTTTTTTGGATTT | 8.97 ± 0.53

Row | Sequence | gcPBM binding intensity (ln)
39 | TACATGAATATATAAAGAAAAAAAAAAAAACACACA [XGTACX_negctrl_site350] | 8.74 ± 0.41
40 | TATAAATTATATATTTGTACGTATATCACATATATA [XGTACX_site7053] | 8.72 ± 0.38
41 | TTTATTGAATAAAATGCACACGCATGCGTTATTTAT [CACACA_site9154] | 9.18 ± 0.38
42 | TATATGTTATATTTAACACACATATAAGGTACATAT [CACACA_site612] | 8.99 ± 0.37
43 | TTCTCATAATTAAATAGTACATATTTTAATAATCAC [XGTACX_site6116] | 8.47 ± 0.35
44 | TTAGTTATTATAATTTGTACACAAATGGTAAAGTAT [XGTACX_site2343] | 8.76 ± 0.33
45 | TTTGTACCGGCATTTTTTTTTTCTTTTTTTTTCCAA [XGTACX_negctrl_site323] | 8.64 ± 0.56
46 | TATTAAAAATGTTAAGTGCAAAAATAAAAATTGTGG [GTGCAC_site9854] | 8.74 ± 0.44
47 | AAAATTATATATTATAGTACATAAAATTTTGATATA [XGTACX_site994] | 8.52 ± 0.45
48 | AATAAATAAAAATATATATATATAATATACATGTGT [TGCATGCA_negctrl_site369] | 8.85 ± 0.52
49 | GGATGTATTTATATGTGTATGTGTTTGGAAATATGT [XGTACX_negctrl_site99] | 9.08 ± 0.28
50 | ACATATGAAAAATATGCATGCAAATATTATTTAACA [TGCATGCA_site802] | 9.03 ± 0.37
51 | TTTTTAAAATTTTTAAAAATATTATGTTAAATATAT [CACACA_negctrl_site415] | 8.1 ± 0.36
52 | TATGTATGTTAGTGTGCACACATAAATATTATATAT [CACACA_site9121] | 9.4 ± 0.26
53 | ATATATATGTATTTATGTACATATTATTTTTCTTAA [XGTACX_site8169] | 8.68 ± 0.45
54 | AAAAAAAAAAAAATCTCACACATAAAGAGATTATGA [CACACA_site4408] | 8.43 ± 0.51
55 | TTGAAAGAAAATAAAATAAAATAAAATAAAATAAAA [CACACA_negctrl_site859] | 8.47 ± 0.67
56 | TTTTAAAAATTAAGTGCATGTCCTTATAAAAAAAAA [TGCATGCA_site845] | 8.21 ± 0.4
57 | TTCATATATTTAGGACGTACTTTTATATTACTATAT [XGTACX_site6456] | 8.88 ± 0.32
